# Measured values published in the supplement of paper PMC8728848.
# The other results are listed elsewhere or left out.
# B1: Factor H (Homo sapiens), P08603 (protein)
# chain: MRLLAKIICLMLWAICVAEDCNELPPRRNTEILTGSWSDQTYPEGTQAIYKCRPGYRSLGNVIMVCRKGEWVALNPLRKCQKRPCGHPGDTPFGTFTLTGGNVFEYGVKAVYTCNEGYQLLGEINYRECDTDGWTNDIPICEVVKCLPVTAPENGKIVSSAMEPDREYHFGQAVRFVCNSGYKIEGDEEMHCSDDGFWSKEKPKCVEISCKSPDVINGSPISQKIIYKENERFQYKCNMGYEYSERGDAVCTESGWRPLPSCEEKSCDNPYIPNGDYSPLRIKHRTGDEITYQCRNGFYPATRGNTAKCTSTGWIPAPRCTLKPCDYPDIKHGGLYHENMRRPYFPVAVGKYYSYYCDEHFETPSGSYWDHIHCTQDGWSPAVPCLRKCYFPYLENGYNQNYGRKFVQGKSIDVACHPGYALPKAQTTVTCMENGWSPTPRCIRVKTCSKSSIDIENGFISESQYTYALKEKAKYQCKLGYVTADGETSGSITCGKDGWSAQPTCIKSCDIPVFMNARTKNDFTWFKLNDTLDYECHDGYESNTGSTTGSIVCGYNGWSDLPICYERECELPKIDVHLVPDRKKDQYKVGEVLKFSCKPGFTIVGPNSVQCYHFGLSPDLPICKEQVQSCGPPPELLNGNVKEKTKEEYGHSEVVEYYCNPRFLMKGPNKIQCVDGEWTTLPVCIVEESTCGDIPELEHGWAQLSSPPYYYGDSVEFNCSESFTMIGHRSITCIHGVWTQLPQCVAIDKLKKCKSSNLIILEEHLKNKKEFDHNSNIRYRCRGKEGWIHTVCINGRWDPEVNCSMAQIQLCPPPPQIPNSHNMTTTLNYRDGEKVSVLCQENYLIQEGEEITCKDGRWQSIPLCVEKIPCSQPPQIEHGTINSSRSSQESYAHGTKLSYTCEGGFRISEENETTCYMGKWSSPPQCEGLPCKSPPEISHGVVAHMSDSYQYGEEVTYKCFEGFGIDGPAIAKCLGEKWSHPPSCIKTDCLSLPSFENAIPMGEKKDVYKAGEQVTYTCATYYKMDGASNVTCINSRWTGRPTCRDTSCVNPPTVQNAYIVSRQMSKYPSGERVRYQCRSPYEMFGDEEVMCLNGNWTEPPQCKDSTGKCGPPPPIDNGDITSFPLSVYAPASSVEYQCQNLYQLEGNKRITCRNGQWSEPPKCLHPCVISREIMENYNIALRWTAKQKLYSRTGESVEFVCKRGYRLSSRSHTLRTTCWDGKLEYPTCAKR
# Assays:
# Test in all cases: glycan array binding signal (z-score within array); higher = stronger binding
# Conditions in all cases: glycan notation: IUPAC condensed, linker removed
# [1] = biological target: Fuc(a1-2)[GalNAc(a1-3)]Gal(b1-4)[Fuc(a1-3)]GlcNAc
# Outline: (§1)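 Arrays were curated from the Consortium for Functional Glycomics database, 3228 in total, and kept only where the protein sequence was available. Binding is expressed as a within-array Z-score. This score was averaged across arrays of the same protein sequence at different concentrations or buffers and across linkers, and negative values can be read as non-binding.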
# [2] = biological target: Fuc(a1-2)[GalNAc(a1-4)]Gal(b1-4)GlcNAc
# Outline: as §1
# [3] = biological target: Fuc(a1-2)[GalNAc(b1-3)]Gal
# Outline: as §1
# Fuc(a1-3)GlcNAc = biological target: Fuc(a1-3)GlcNAc
# Outline: as §1
# [4] = biological target: Fuc(a1-3)[Gal(b1-4)]Glc6S
# Outline: as §1
# [5] = biological target: Fuc(a1-3)[Gal(b1-4)]GlcNAc
# Outline: as §1
# [6] = biological target: Fuc(a1-3)[Gal(b1-4)]GlcNAc(b1-2)Man(a1-3)[Fuc(a1-3)[Gal(b1-4)]GlcNAc(b1-2)Man(a1-6)]Man(b1-4)GlcNAc(b1-4)GlcNAc
# Outline: as §1
# [7] = biological target: Fuc(a1-3)[Gal(b1-4)]GlcNAc(b1-2)Man(a1-6)[Gal(b1-4)GlcNAc(b1-2)Man(a1-3)]Man(b1-4)GlcNAc(b1-4)GlcNAc
# Outline: as §1
# [8] = biological target: Fuc(a1-3)[Gal(b1-4)]GlcNAc(b1-3)Gal(b1-3)[Fuc(a1-4)]GlcNAc
# Outline: as §1
# [9] = biological target: Fuc(a1-3)[Gal(b1-4)]GlcNAc(b1-4)Gal(b1-4)[Fuc(a1-3)]GlcNAc
# Outline: as §1
# [10] = biological target: Fuc(a1-3)[Gal(b1-4)]GlcNAc(b1-4)Gal(b1-4)[Fuc(a1-3)]GlcNAc(b1-4)Gal(b1-4)[Fuc(a1-3)]GlcNAc
# Outline: as §1
# [11] = biological target: Fuc(a1-3)[Gal(b1-4)]GlcNAc6S
# Outline: as §1
# [12] = biological target: Fuc(a1-3)[Gal3S(b1-4)]Glc6S
# Outline: as §1
# [13] = biological target: Fuc(a1-3)[Gal3S(b1-4)]GlcNAc
# Outline: as §1
# [14] = biological target: Fuc(a1-3)[Gal3S(b1-4)]GlcNAc6S
# Outline: as §1
# [15] = biological target: Fuc(a1-3)[GalNAc(b1-4)]GlcNAc
# Outline: as §1
# Fuc(a1-4)GlcNAc = biological target: Fuc(a1-4)GlcNAc
# Outline: as §1
# Fuc(b1-3)GlcNAc = biological target: Fuc(b1-3)GlcNAc
# Outline: as §1
# Gal(a1-2)Gal = biological target: Gal(a1-2)Gal
# Outline: as §1
# Gal(a1-3)Gal = biological target: Gal(a1-3)Gal
# Outline: as §1
# Gal(a1-3)Gal(b1-3)GlcNAc = biological target: Gal(a1-3)Gal(b1-3)GlcNAc
# Outline: as §1
# Gal(a1-3)Gal(b1-4)Glc = biological target: Gal(a1-3)Gal(b1-4)Glc
# Outline: as §1
# Gal(a1-3)Gal(b1-4)GlcNAc = biological target: Gal(a1-3)Gal(b1-4)GlcNAc
# Outline: as §1
# [16] = biological target: Gal(a1-3)Gal(b1-4)[Fuc(a1-3)]GlcNAc
# Outline: as §1
# Gal(a1-3)GalNAc = biological target: Gal(a1-3)GalNAc
# Outline: as §1
# [17] = biological target: Gal(a1-3)[Gal(a1-4)]Gal(b1-4)GlcNAc
# Outline: as §1
# Gal(a1-4)Gal(b1-4)Glc = biological target: Gal(a1-4)Gal(b1-4)Glc
# Outline: as §1
# Gal(a1-4)Gal(b1-4)GlcNAc = biological target: Gal(a1-4)Gal(b1-4)GlcNAc
# Outline: as §1
# Gal(a1-4)GlcNAc = biological target: Gal(a1-4)GlcNAc
# Outline: as §1
# Gal(a1-6)Glc = biological target: Gal(a1-6)Glc
# Outline: as §1
binder,measurement,setting,value
B1,glycan array binding signal (z-score),[1],0.84
same,glycan array binding signal (z-score),[2],-0.167
same,glycan array binding signal (z-score),[3],3.61
same,glycan array binding signal (z-score),Fuc(a1-3)GlcNAc,1.15
same,glycan array binding signal (z-score),[4],-0.418
same,glycan array binding signal (z-score),[5],-0.291
same,glycan array binding signal (z-score),[6],-0.324
same,glycan array binding signal (z-score),[7],-0.455
same,glycan array binding signal (z-score),[8],0.031
same,glycan array binding signal (z-score),[9],-0.587
same,glycan array binding signal (z-score),[10],-0.434
same,glycan array binding signal (z-score),[11],0.478
same,glycan array binding signal (z-score),[12],-0.279
same,glycan array binding signal (z-score),[13],-0.232
same,glycan array binding signal (z-score),[14],-0.41
same,glycan array binding signal (z-score),[15],-0.626
same,glycan array binding signal (z-score),Fuc(a1-4)GlcNAc,0.378
same,glycan array binding signal (z-score),Fuc(b1-3)GlcNAc,0.235
same,glycan array binding signal (z-score),Gal(a1-2)Gal,0.862
same,glycan array binding signal (z-score),Gal(a1-3)Gal,1.26
same,glycan array binding signal (z-score),Gal(a1-3)Gal(b1-3)GlcNAc,0.079
same,glycan array binding signal (z-score),Gal(a1-3)Gal(b1-4)Glc,-0.299
same,glycan array binding signal (z-score),Gal(a1-3)Gal(b1-4)GlcNAc,-0.491
same,glycan array binding signal (z-score),[16],-0.583
same,glycan array binding signal (z-score),Gal(a1-3)GalNAc,-0.24
same,glycan array binding signal (z-score),[17],-0.355
same,glycan array binding signal (z-score),Gal(a1-4)Gal(b1-4)Glc,-0.426
same,glycan array binding signal (z-score),Gal(a1-4)Gal(b1-4)GlcNAc,-0.467
same,glycan array binding signal (z-score),Gal(a1-4)GlcNAc,-0.49
same,glycan array binding signal (z-score),Gal(a1-6)Glc,-0.53
